Screen size: about 150,000 compounds; about 540 (0.36%) showed an effect of 50% or more. Some of the results follow.

The test system of this test is Plasmodium falciparum. Put plainly: Primary screen in NF54 nanoGlo assay, in single point, at 2uM, 72h; a lower Z score goes with more inhibition. Format: functional, Erythrocyte. To be noted: timepoint 72 hour.
For orientation: % Inhibition means the drop in the measured response relative to a control, in per cent. With `CCN(CC)C(=O)[C@H](C)N1CCc2ncc(C(F)(F)F)cc2C1`, the “% Inhibition” value turned out to be 5% and the Z score is reported as -0.94.
For `CC1CCN(C[C@H]2CCCN(C(=O)c3cccc(F)c3)CC2)CC1`, in that order: 1% and -0.2.
For `Nc1nc(CCNC(=O)c2ccc(Cl)s2)cs1`, in that order: -20% and 3.39.
Regarding `CCOc1ccc(NC(=O)CCn2ccc(=O)[nH]c2=O)cc1`, the “% Inhibition” value is listed as -9% and the Z score came out at 1.05.
With `CC1CC(C(N)=O)c2ccccc2N1Cc1nc2ccccc2o1` (stereo not drawn), the “% Inhibition” value was -1% and the Z score was determined as 0.13.
For `O=C(NC(c1ccc(F)cc1)C1CCCC1)C1CCCN(C(=O)c2ccoc2)C1` (stereo not drawn), in that order: -6% and 0.77.
The corresponding values for `COc1ccc([C@H]2C(=O)N(CCc3ccccc3)CC(=O)N2C2CCCCC2)cc1` are 2% and -0.25.
The corresponding values for `Cc1ccnc(NC(=O)CCC2CCCCC2)n1` are -7% and 1.03.
Regarding `CN(Cc1nc([C@H]2CCOC2)no1)c1ccccc1`, the “% Inhibition” value came out at 8% and the Z score is recorded as -1.14.
Regarding `NC(=O)CCn1ccc(Nc2nccc(C(F)(F)F)n2)n1`, the “% Inhibition” value is recorded as -8% and the Z score was 0.77.
The corresponding values for `COC(=O)CS(=O)(=O)N1CC(S(=O)(=O)CC(C)C)C1` are -7% and 1.11.
For `COc1ccc(F)c(CN2CCC[C@@]3(CCN(C(=O)c4c[nH]nc4C)C3)C2=O)c1`, in that order: -15% and 1.99.
`Fc1cnc(NCCCn2ccnc2)nc1`: the “% Inhibition” value is listed as -4% and the Z score is on record as 0.46.
The corresponding values for `Cc1cc(C)c(CN[C@@H](C)CCC(C)C)c(C)c1CO` are 7% and -1.08.
The corresponding values for `CC(C)c1ncsc1C(=O)N[C@H](C)c1ccc(Cl)cn1` are -4% and 0.51.
For `CCOCc1cc(CN2CC[C@H](N3CCN(C)CC3)[C@@H](O)C2)ccc1OC`, in that order: -3% and 0.65.
Regarding `CC(=O)N(CCN1CCCCC1)[C@H]1CCCN(C(=O)c2ncoc2-c2cccc(C)c2)C1`, the “% Inhibition” value is given as -15% and the Z score is recorded as 2.
On to `c1nc(CN2CCc3nc(CC4CC4)nc(NC4CC4)c3CC2)c[nH]1`, for which the “% Inhibition” value was -17% and the Z score amounted to 1.69.
The corresponding values for `Cc1cnccc1N1CCCO[C@@H](CF)C1` are -18% and 2.21.
The corresponding values for `O=C1CCC(=O)N1C1CC2CCC(C1)N2C(=O)CC(c1ccccc1)c1ccccc1` (stereo not drawn) are -12% and 1.35.
Take `COCCCN(C)C(=O)Nc1ccc(C)cn1`: the “% Inhibition” value was -7% and the Z score came out at 0.64.
For `CN(Cc1nccs1)c1nc2nonc2nc1N1CCCCC1`, in that order: 0% and 0.03.
For `CN1C(=O)C[C@H](C(=O)NCc2ccc3[nH]cnc3c2)C1(C)C`, in that order: -4% and 0.39.
As for `Cn1cc(CNC2CCCCCC2)cn1`, the “% Inhibition” value is reported as -13% and the Z score is reported as 1.72.
As for `O=C(NCCNCc1ccc(Cl)cc1)c1cccs1`, the “% Inhibition” value came to 29% and the Z score is -3.87.
For `COc1ccccc1OCc1n[nH]c([C@@H]2CCCO2)n1`, in that order: 11% and -2.04.
Regarding `O=C(CCc1ccncc1)N1CC[C@@H](O)[C@H]1c1ccc(Cl)cc1`, the “% Inhibition” value is -10% and the Z score amounted to 0.85.
The corresponding values for `COc1cncc(O[C@H]2CCCN(C(=O)N3CCN(C)CC3)C2)n1` are -5% and 0.79.
The corresponding values for `Cc1nscc1C(=O)N[C@H]1CC(=O)N(c2c(F)cccc2F)C1` are -10% and 1.92.
The corresponding values for `COc1ccc(NC(=O)N(C)C[C@H](C)c2nccs2)cc1C` are -11% and 1.02.
Consider `CCc1nnc(CNc2ccc(Br)cc2C(C)=O)o1`, for which the “% Inhibition” value is reported as -19% and the Z score is 2.13.
For `CN(C)C(=O)CN1CCN(C(=O)c2c3c(nc4ccccc24)CCC3)CC1`, in that order: -16% and 1.43.
The corresponding values for `Cc1nc([C@H]2CC23CCN(S(=O)(=O)Cc2ccccc2)CC3)no1` are -17% and 2.49.
The corresponding values for `Cc1cccc(NS(=O)(=O)c2ccc3c(c2)Cc2cc(S(=O)(=O)Nc4cccc(C)c4)ccc2-3)c1` are 40% and -4.52.
For `C#C[C@H](CC)NC(=O)N1CCC(OCC2CC2)CC1`, the “% Inhibition” value is -6% and the Z score is reported as 0.71.
For `CCn1nc(CC(C)C)cc1C(=O)N1CCc2nocc2C1`, in that order: 3% and -0.32.
In the case of `CC(C)Oc1ccc(CNC(=O)CC2CCN(C(=O)c3cc4ccccc4[nH]3)CC2)cc1`, the “% Inhibition” value is listed as -26% and the Z score is 2.35.
The corresponding values for `CC(C)Cc1nc(C(=O)N2CCCOC2)cs1` are 4% and -0.58.
For `CC1CCN(c2onc(-c3ccccc3)c2CN(Cc2ccco2)C(=O)Nc2cccc(Cl)c2)CC1`, in that order: 9% and -1.09.
The corresponding values for `COc1ccc(OCc2nc3c4c(ncn3n2)-c2ccccc2CC42CCCCC2)cc1` are -8% and 0.89.
As for `CCC(=O)Nc1ccc(Cl)c(NCC(=O)N(CC)CCC#N)c1`, the “% Inhibition” value is recorded as -13% and the Z score came out at 1.29.
For `COc1ccc(CNC(=O)[C@]2(C)Cn3cnc(C(=O)NCCc4ccco4)c3C(=O)N2C2CC2)cc1`, in that order: -26% and 2.61.
For `Cc1cc(C(=O)NCc2cccnc2Oc2ccc(F)cc2F)[nH]n1`, in that order: -4% and 0.49.
The corresponding values for `O=C(Cc1noc2ccccc12)N[C@H]1CC[C@H](Oc2cnccn2)CC1` are -19% and 2.14.

Values taken from ChEMBL document CHEMBL4888484, “Replenishing the malaria drug discovery pipeline: Screening and hit evaluation of the MMV Hit Generation Library 1 (HGL1) against asexual blood stage Plasmodium falciparum ,using a nano luciferase reporter read-out” (2022).
